# Laboratory results taken from PubChem BioAssay AID1240 (Sanford-Burnham Center for Chemical Genomics, 2008).
# In all, about 50,000 compounds went through this assay and about 800 (1.6%) showed an effect of 50% or more. Some of the results follow.
# Target: Bcl-2-like protein 10 (Homo sapiens) (UniProt Q9HD36)
# Assay: Phenotype converters, Bcl-B/TR3 peptide binding displacement, primary biochemical FP (AID 1240);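 further: 0% = Bcl-B with tracer peptide and DMSO and 100% = tracer peptide lacking Bcl-B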
# Conditions: GST-Bcl-B / FITC-TR3 peptide fluorescence polarization; stronger effect = higher value; compound at 3.75 mg/L
# Chain of UniProt Q9HD36 (Q9HD36 whole entry, looked up): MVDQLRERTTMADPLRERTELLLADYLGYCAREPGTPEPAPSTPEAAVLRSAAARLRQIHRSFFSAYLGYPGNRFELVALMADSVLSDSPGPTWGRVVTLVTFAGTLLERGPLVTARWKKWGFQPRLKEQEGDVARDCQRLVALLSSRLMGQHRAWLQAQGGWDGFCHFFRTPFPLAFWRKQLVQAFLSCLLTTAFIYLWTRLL
row,Compound,displacement
1,CSc1ccccc1NC(=O)CSc1nc2ccccc2o1,18.9%
2,CCOC(=O)c1c(NC(=O)COc2cc(C)ccc2C(C)C)sc(C(C)=O)c1C,3.6%
3,Cc1ccc2c(Cl)c(C(=O)N3CCN(c4ccc(Cl)cc4)CC3)sc2c1,-8.9%
4,O=C(Nc1ccc2nn(-c3ccc(F)cc3)nc2c1)c1ccc(-c2ccc([N+](=O)[O-])cc2)o1,8.2%
5,CCCCOCCNC(=O)c1ccc(I)cc1,-2.8%
6,COc1ccc(Cl)cc1NC(=O)C1=C(C)NC(=O)NC1c1ccccc1Cl (centres undefined),8.5%
7,O=C(Nc1cccc(C(F)(F)F)c1)/C(=C\c1cccs1)NC(=O)c1cccs1,-3%
8,CCOc1ccc(/C=C/C(=O)c2ccc(F)cc2)cc1,-0.4%
9,CCOc1ccc(/C=C2/SC(=O)N(CN3CCOCC3)C2=O)cc1,2.5%
10,COc1cc(NC(=O)c2cc(Cl)ccc2OC)ccc1NC(=O)c1ccco1,-5.2%
11,O=C(NCCN1CCOCC1)/C(=C/c1ccc(F)cc1)NC(=O)c1ccccc1,6.7%
12,CCC(C(=O)Nc1cc(Cl)cc(Cl)c1)c1ccccc1 (centres undefined),-0.6%
13,CCC(CC)C(=O)Nc1ccc(S(=O)(=O)Nc2cnc3ccccc3n2)cc1,-0.2%
14,O=C(NCCCNc1ccc([N+](=O)[O-])cc1Cl)c1cccc(Br)c1,17.3%
15,CC(C)(C)c1ccccc1NC(=O)C1CC(=O)N(c2ccc(Cl)cc2)C1 (centres undefined),-1.3%
16,O=C(c1ccccc1Br)N1CCc2ccccc2C1,-10.3%
17,Cc1nc(C)c(-c2csc(Nc3ccc(O)cc3)n2)s1,10%
18,C/C(=N/NC(=O)CN(c1cccc(Cl)c1)S(=O)(=O)c1ccccc1)c1ccccc1O,-4.7%
19,Cc1ccc(CNC(=O)C(=O)N2CCCC2)cc1,-2.6%
20,Oc1ccc(C=Nc2cc(Cl)ccc2O)cc1,10%
21,O=C(Nc1nnc(COc2ccc(C3CCCCC3)cc2)s1)c1ccccc1,37.9%
22,CS(=O)(=O)N(CC(=O)N1CCCC1)c1cccc(Cl)c1,-2.9%

row,Compound,displacement
1,O=C(NCCC1=CCCCC1)C(=O)Nc1ccccc1F,-11.5%
2,COc1cc(NC(=O)COc2ccccc2)cc(OC)c1,-0.2%
3,CCN1C(=O)/C(=C\c2ccc(Br)cc2)SC1=S,7.1%
4,CC1=NN(c2ccc(S(N)(=O)=O)cc2)C(=O)/C1=C\c1ccc(-c2ccc(C)c(Cl)c2)o1,4%
5,Cc1c(Cl)cccc1NC(=O)C(=O)NCCC(C)C,7.4%
6,Cc1cc(=O)oc2ccc(OCc3ccccc3)cc12,3.1%
7,COc1ccc([N+](=O)[O-])cc1NC(=O)Cc1ccc(Br)cc1,1.9%
8,CC1C(c2ccccc2)=[N+]([O-])C(C)(c2ccc(Cl)cc2)N1O (centres undefined),8.5%
9,CN(C)c1ccc(C(=S)N2CCOCC2)cc1Br,7.3%
10,Cc1ccc(S(=O)(=O)N2CCCc3ccccc32)cc1C,17.1%
11,O=C(Nc1ccc(O)cc1)c1cccc(F)c1,12.7%
12,C=CCN1C(=O)c2ccccc2C1(O)c1ccc(Cl)cc1 (centres undefined),-8.4%
13,COc1ccc(CNC(=O)COc2ccc(Cl)cc2C)cc1,-0.6%
14,COc1c([N+](=O)[O-])cc2c(C)c(Br)c(=O)oc2c1OC,15.4%
15,Brc1ccccc1CN1CCN(Cc2ccncc2)CC1,-2.2%
16,O=C(NCc1ccco1)c1nn2c(c1Br)NC(c1cccs1)CC2C(F)(F)F (centres undefined),2.4%
17,O=C(NNc1c(F)c(F)c(F)c(F)c1F)C(O)(c1ccccc1)c1ccccc1,-14.6%
18,CCc1ccc(NC(=O)c2cc3cc(Br)ccc3oc2=O)cc1,-0.3%
19,COc1cccc(CNc2ccc3c(c2)nc(C)n3C)c1OC,3%
20,COc1cc(Cl)ccc1NC(=O)c1c(O)c2ccccc2n(CC(C)C)c1=O,13.8%
21,COc1ccc(OCC(=O)N2CCC(C(N)=O)CC2)cc1,0%
22,COc1cc(/C=C2\SC(=O)N(c3ccccc3)C2=O)ccc1O,10.5%

row,Compound,displacement
1,CCOc1c(C=C2C(=O)NC(=S)NC2=O)cccc1OC,14.9%
2,O=[N+]([O-])c1cc(C(O)(C(F)(F)F)C(F)(F)F)cc([N+](=O)[O-])c1Cl,10.5%
3,O=C(CC(NC(=O)c1ccccc1)c1ccccc1)OCC(=O)N1c2ccccc2Sc2ccccc21 (centres undefined),2.3%
4,Cc1ccc(N2C(=O)CC(NCCc3cccc(F)c3)C2=O)cc1 (centres undefined),0.3%
5,CC(=O)C1=C(O)C(=O)N(CCN2CCNCC2)C1c1ccc(Cl)cc1 (centres undefined),-5.1%
6,O=C1N=C(N2CCOCC2)S/C1=C\c1ccoc1,12.2%
7,Cc1ccc(S(=O)(=O)N2CCN(c3ccc([N+](=O)[O-])c(NCc4ccccc4)c3)CC2)cc1,11.7%
8,O=C1C2C3C=CC(C3)C2C(=O)N1c1cccc(-c2nc3ccccc3c(=O)o2)c1 (centres undefined),12.6%
9,CCOC(=O)C1=CN(c2ccc(C)cc2)C=C(C(=O)OCC)C1c1cc(OC)c(OC)c(OC)c1,-0.6%
10,Cc1ccc(S(=O)(=O)Oc2ccccc2C(=S)N2CCOCC2)cc1,6.8%
11,COc1cccc(/C=N/NC(=O)C(=O)NCc2ccccn2)c1O,-2.3%
12,O=C(Oc1ccc(Br)cc1C(=S)N1CCOCC1)c1ccc(Cl)cc1,11.2%
13,CN(C)c1cccc(C(=O)Nc2cccc(Br)c2)c1,12.6%
14,O=C(NCCCN1CCOCC1)C(=O)NCc1ccco1,9%
15,COC(=O)c1ccc(/C=N/NC(=O)c2n[nH]c3c2CCC3)cc1,-8%
16,Cc1ccc(-n2c(=O)c3c4c(sc3n3c(SCC(N)=O)nnc23)CCCC4)cc1,38.5%
17,CCCNC(=O)OCC12COC(c3ccc4c(c3)OCO4)C(C(C)=CC1C)C2C (centres undefined),0.4%
18,Ic1ccc(-c2nc(-c3ccncc3)no2)cc1,1.6%
19,CCN(CC)c1ccc(/C=C2/SC(NC(C)=O)=NC2=O)cc1,61.1%
20,CCCSc1nnc(-c2ccc(Cl)cc2Cl)o1,11.4%
21,Cc1ccc(-c2nc3ccccc3o2)cc1NC(=O)c1ccc2c(c1)OCCO2,45.1%
22,CCOC(=O)C1=C(C)N=C2SCC(=O)N2C1c1ccc(O)cc1 (centres undefined),4.6%

row,Compound,displacement
1,COC(=O)c1cc(C(=O)N2CCCC(C)C2)cc([N+](=O)[O-])c1 (centres undefined),-8.5%
2,CCOC(=O)C1=C(C)N=c2s/c(=C\c3cc(OC)c(OC)cc3[N+](=O)[O-])c(=O)n2C1c1ccc(SC)cc1 (centres undefined),-10.2%
3,CCOC(=O)C(Nc1cc2oc3ccccc3c2cc1OC)c1ccccc1 (centres undefined),-2.3%
4,Cc1ccccc1NC(=O)c1cc2ccccc2c(/C=N/n2cnnc2)c1O,109%
5,O=C(O)/C=C\C(=O)Nc1cccc(-c2cn3ccccc3n2)c1,8.8%
6,COc1cc(C(=O)Nc2nc(C(C)(C)C)cs2)cc(OC)c1OC,4.5%
7,CC1CN(CN2C(=O)C(=O)c3ccccc32)CC(C)O1 (centres undefined),-2.4%
8,CCOc1ccc2c(C)c(CC)c(=O)oc2c1,11.8%
9,CCOC(=O)c1c(-c2ccc(Cl)cc2)csc1NC(=O)c1ccco1,10.8%
10,Cc1ccc(N2C(=O)C3CC=C(c4ccccc4)CC3C2=O)cc1 (centres undefined),-0.7%
11,CCn1c(O)c(N=NC(=O)c2cccc([N+](=O)[O-])c2)c2ccccc21,-7.4%
12,CCCC(=O)C1=C(O)C(C(=O)OC)C(C)(C)CC1=NC(C)CC (centres undefined),0%
13,CC1=C(C(=O)OCCc2ccccc2)C(c2ccccc2OCc2ccccc2)CC(=O)N1 (centres undefined),-10.4%
14,COc1ccc(C(=O)CN2C3=NCCN3c3ccccc32)cc1OC,-7.6%
15,C(=N\N1CCN(c2ccccc2)CC1)/c1ccc(OCc2ccccc2)cc1,-1.7%
16,Cc1[nH]n(-c2ccc([N+](=O)[O-])cc2)c(=O)c1C=NCCN1CCN(C(=O)c2cccc(F)c2)CC1,-7.5%
17,O=C(CSc1nc2ccc([N+](=O)[O-])cc2s1)NCc1ccco1,-4.6%
18,Cc1ccc(/C=C2\SC(=Nc3cccc(Cl)c3C)NC2=O)cc1[N+](=O)[O-],-44.9%
19,Cc1ccc(O)c2nc(/C=C/c3ccccc3N)ccc12,2.3%
20,Cc1cc(C)c(C(N)=O)c(Nc2ccccc2)n1,0.3%
21,CCOc1cc(/C=N/NC(=O)COc2ccccc2C)cc(I)c1O,8%
22,CCOC(=O)c1ccccc1NS(=O)(=O)c1ccccc1,-9.2%

row,Compound,displacement
1,Cc1cc(C)cc(NC(=O)c2ccncc2)c1,0.4%
2,CCOc1ccc(-c2cc(C)n3nc(C(=O)Nc4ccccc4C(=O)OC)cc3n2)cc1,-1.8%
3,CC1=C(C(=O)OCCOc2ccccc2)C(c2ccc(Cl)c([N+](=O)[O-])c2)C2=C(CC(C)(C)CC2=O)N1 (centres undefined),-2.6%
4,CC(C)(C)c1ccc(C(=O)Nc2cccc(Cl)c2)cc1,-12.3%
5,O=C(NCc1ccccc1Cl)c1ccc(I)cc1,9.3%
6,CC(C)(C)c1ccc(OCC(=O)Nc2ccccc2[N+](=O)[O-])cc1,13.2%
7,CC(=O)NC1=NC(=O)/C(=C\c2ccc(-c3cc([N+](=O)[O-])ccc3C)o2)S1,-11.2%
8,CCCC(=O)c1ccc(N2CCN(C(=O)c3cccc(F)c3)CC2)c(F)c1,-9%
9,CSc1nnc(-c2cccc(NC(=S)NN)c2)o1,7.1%
10,CCOC(=O)c1c(NC(C)=O)sc2c1CCN(CCc1ccccc1)C2,2.4%
11,CCOC(=O)C1=C(C)C2C3C(=O)N(c4cc(C)ccc4C)C(=O)C3C1(C)C1C(=O)N(c3cc(C)ccc3C)C(=O)C21 (centres undefined),-6.3%
12,COc1c(OC(C)=O)ccc(/C=N/NC(=O)COc2ccc(Cl)cc2Br)c1[N+](=O)[O-],1.1%
13,CC(C)Oc1ccccc1C1Nc2ccccc2NC2=C1C(=O)CC(c1ccccc1)C2 (centres undefined),7.3%
14,O=C(c1cccnc1)N(Cc1ccccc1)c1cccc([N+](=O)[O-])c1,-2.8%
15,O=C(Cc1ccc(-c2ccccc2)cc1)NNC(=O)c1ccccc1Cl,-11.5%
16,COc1ccc(C(=O)n2nc(C)c(Sc3ccccc3)c2C)cc1,4.4%
17,Cc1sc2nc(-c3ccc(C(C)(C)C)cc3)oc(=O)c2c1C,7.5%
18,O=C(CSc1nc2ccccc2o1)Nc1nc2c(s1)CCCC2,6.9%
19,CC1=C(C#N)c2nc(N)c(C#N)c(C)c2/C1=C\c1ccco1,0%
20,CC(C)N(C(=O)c1ccc(C(N)=O)cc1)C(C)C,5.7%
21,CC(=O)Oc1cccc(N2C(=O)CCC2=O)c1,-1.9%
